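All cell lines were grown in 96-well plates and treated with compound for 48 hours. Here, GI50 denotes the concentration required for 50% inhibition of growth.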 Calls of active or inactive are those of the source. Cut-off read from the data, not from the text of the source: active = GI50 up to about 1.1 µM and inactive = higher.
Test system: NCI-H322M
Experiment: growth of human tumour cells (NCI), 48 h

Structure (SMILES) | GI50
Cc1cc(S(=O)(=O)O)ccc1/N=N/c1ccc(/N=N/c2c(O)ccc3ccccc23)c(C)c1 | inactive: > 100 µM
CC1=C2CC(C)(C)CC(=O)C2(C)CCC1=O (configuration not stated) | inactive: > 100 µM
CC(=O)OC1=CC(n2cc(F)c(=O)[nH]c2=O)OC(C)C1=O (configuration not stated) | inactive: 56.6 µM
C[N+](C)(C)CCOP(=O)(O)OP(=O)([O-])OCC1CCC(n2ccc(N)nc2=O)O1 (configuration not stated) | inactive: > 100 µM
O=C(NNC(=O)c1cc2ccccc2[nH]1)c1cc2ccccc2[nH]1 | inactive: > 100 µM
CCOC(=O)C(C)c1nc2cc(F)c(F)cc2[nH]c1=O (configuration not stated) | inactive: > 100 µM
CCCNC1=Nc2ccccc2[C@@H]2N(C)c3ccccc3C(C)C[C@]12C (some centres not stated) | inactive: 20.8 µM
C[C@@H]1CC[C@@]2(NC1)O[C@H]1C[C@H]3[C@@H]4CC[C@H]5C[C@@H](O)CC[C@]5(C)[C@H]4CC[C@]3(C)[C@H]1[C@@H]2C | inactive: 60.8 µM
CC(=O)OC1CC2CC(=O)CC1N2C (configuration not stated) | inactive: > 100 µM
CN(C)CCCNC(=O)c1cccc2ccccc12 | inactive: > 100 µM
COC(=O)C(CCCC1(c2ccccc2)OCCO1)C(C)=O (configuration not stated) | inactive: > 100 µM
O=C(N/N=C/c1ccc([N+](=O)[O-])cc1)Nc1ccc(C(=O)O)cc1 | inactive: 34.1 µM
CCOC(=O)Cc1ccc(Nc2nc3cc(F)c(F)cc3nc2C(=O)OCC)cc1 | inactive: 52.6 µM
CCOC(=O)Cc1cc(OC)c(OC)cc1/C(Cl)=C(\C=O)c1ccc(OC)c(OC)c1 | inactive: 13.7 µM
O=c1c(Cc2ccccc2)c(-c2ccccc2)[nH]n1C1=NCCN1 | inactive: 35.9 µM
CCCn1c(SCC)c2cc3cc4ccccc4cc3cc2c1-c1nc(F)nc(F)n1 | inactive: > 100 µM
O=C(Nc1nnc(-c2ccccc2)o1)C(SC(=S)N1CCCCC1)c1ccccc1 (configuration not stated) | inactive: 13.8 µM
CC(C)(C)c1ccc2c(c1)S(=O)(=O)Nc1ccc(Cl)cc1NS(=O)(=O)c1cc(C(C)(C)C)ccc1OCCOCCOCCO2 | inactive: > 100 µM
C/C=C1\CC2C(=O)CCC2C2c3ccccc3OC12 (configuration not stated) | inactive: > 100 µM
CC1(C)CC(=O)c2c(-c3ccc(Cl)cc3)c(C#N)c(=S)n(C3OC(CO)C(O)C(O)C3O)c2C1 (configuration not stated) | inactive: 40.2 µM
O=C(Cc1nc2ncccc2[nH]c1=O)c1c[nH]c2ccccc12 | inactive: 21.2 µM
Cc1ccc(S(=O)(=O)NC(=O)NC(CCC(N)=O)C(=O)O)cc1 (configuration not stated) | inactive: > 100 µM

Structure (SMILES) | GI50
COc1ccc(/C=N/NC(=O)NCCNCCO)cc1 | inactive: > 100 µM
CC(=O)CCCCCCCCCCCC[C@@H]1CC[C@H](C)[C@H](O)N1 | inactive: > 100 µM
COc1cc2c3cc1Oc1c(O)c(OC)cc4c1[C@H](Cc1ccc(cc1)Oc1cc(ccc1O)C[C@H]3N(C)CC2)N(C)CC4 | inactive: 16.9 µM
CCOc1ccc(Nc2nc(C)c(C(=O)/C=C/c3ccc(Cl)cc3Cl)s2)cc1 | inactive: 35.2 µM
NC(=O)Cc1nc2c(N)ncnc2n1C1OC(CO)C(O)C1O (configuration not stated) | inactive: > 100 µM
Cc1ccc(/N=C2\N=C(N3CC(C)OC(C)C3)c3ccccc32)cc1 (configuration not stated) | inactive: 23.2 µM
CC1=CCC[C@H]2[C@](C)(CC3=CC(=O)C(Sc4ccccc4)=CC3=O)[C@@H](C)CC[C@]12C | inactive: 17 µM
Cc1cc(/N=C/c2c(CO)cnc(C)c2O)c(/N=C/c2c(CO)cnc(C)c2O)cc1C | inactive: 99.1 µM
CS(=O)(=O)OCCN(CCOS(C)(=O)=O)c1ccc(/C=N/c2cccc(Cl)c2)cc1 | inactive: 13.5 µM
NC(=O)N/N=C(\Cc1nc2ccc(C(=O)c3ccccc3)cc2nc1O)C(=O)Nc1ccc(Br)cc1 | inactive: > 100 µM
O=C(O)c1cc2ccccc2c(O)c1O | inactive: 14.4 µM
CC(=O)Nc1ccc(C2=N/C(=C\c3ccc(Cl)c(Cl)c3)C(=O)O2)cc1 | inactive: > 100 µM
CN(C)CCCN1c2ccccc2C(C)(C)c2ccccc21 [DIMETACRINE] | inactive: 15.3 µM
NC(=O)CN(CC(N)=O)C(N)=O | inactive: > 100 µM
COc1cccc(-c2cc(O)c3cc4c(cc3n2)OCO4)c1 | inactive: 3.03 µM
COC(=O)N/N=C(/CCC(=O)Nc1ccc(C)c(C)c1)CC(=O)C(C)(C)C | inactive: > 100 µM
CCN(CC)C(=S)N/N=C(\C)c1ccccc1O | inactive: 40.4 µM
C/C(=N\NC(N)=O)C(CN1CCOCC1)C(c1ccccc1)c1c(O)c2ccccc2oc1=O (configuration not stated) | inactive: > 100 µM
COC(=O)c1c2c(cc3c1CC1(Cc4cc5c(c(C(C)=O)c4C1)CCCC5)C3)CCCC2 (configuration not stated) | inactive: > 100 µM
CC1(C)O[C@@H]2[C@@H]3OC(=O)C[C@@H]3[C@@H](COCc3ccccc3)[C@@H]2O1 | inactive: > 100 µM
C=C(C(=O)OC)[C@@H]1C[C@@H](OC(C)=O)C2=C[C@H](C[C@@]3(C)O[C@@H]3C3=CC(C)=C(O3)[C@H]1OC(C)=O)OC2=O [BIPINNATIN I] | inactive: 35.2 µM
O=S(=O)(CCCCl)SCCCCl | inactive: > 79.6 µM

Structure (SMILES) | GI50
C=C1C(=O)OC2C/C(C)=C/CC/C(C)=C/CCC3(COC(C)=O)OC3CC12 (configuration not stated) | inactive: 16.4 µM
COC(=O)C1OC(O[C@H]2CC[C@]3(C)[C@H]4CC=C5[C@@H]6CC(C)(C)CC[C@]6(C(=O)OC)[C@H](O)C[C@@]5(C)[C@]4(C)CC[C@H]3C2(C)C)C(O)C(O)C1O (some centres not stated) | inactive: 5.41 µM
Cc1ccc2c(C)c3ccc4ccccc4c3c[n+]2c1.[O-][Cl+3]([O-])([O-])[O-] | inactive: 13.9 µM
Cc1cn(C(=O)NC23CC4CC(CC(C4)C2)C3)c(=O)[nH]c1=O | inactive: > 100 µM
CC(C)C(Sc1nc(-c2ccccc2)c(-c2ccccc2)[nH]1)c1n[nH]c(=S)n1-c1ccccc1 (configuration not stated) | inactive: 46.7 µM
O=C(O)Cc1cc(O)c(CC(=O)O)cc1O | inactive: > 100 µM
C[C@]12CC(c3ccccc3O1)C(C(N)=O)C(=O)N2 (some centres not stated) | inactive: > 100 µM
[B].c1ccc([Si](OCCN2CC2)(c2ccccc2)c2ccccc2)cc1 | inactive: 14.6 µM
COC(=O)[C@@]12OC[C@]34C([C@@H](O)C1O)[C@@]1(C)CC(=O)C(O)=C(C)C1C[C@H]3OC(=O)[C@H](OC(=O)CC(C)C(F)(F)F)[C@H]42 (some centres not stated) | active: 0.401 µM
Cc1ccc(NC(=S)NNC(=O)c2cc(-c3ccccc3)nc3ccccc23)cc1C | inactive: 27.4 µM
COc1ccc(NC(=O)C(=O)C2CNC(=O)NC2=O)c(OC)c1 (configuration not stated) | inactive: > 100 µM
O=C(Cc1nc2ccc(C(=O)c3ccccc3)cc2nc1O)C(=O)Nc1nc2ccccc2[nH]1 | inactive: > 100 µM
Cc1ccc(S(=O)(=O)CNC(=O)C(O)(O)C(F)(F)F)cc1 | inactive: > 100 µM
COc1ccccc1/C=C1/Sc2scc(CC(=O)Nc3ccccc3)[n+]2C1=O | inactive: 33.3 µM
COC(=O)c1c(C)cccc1C1CN=NC12Cc1cc(C)cc(C)c1C2=O (configuration not stated) | inactive: 23.2 µM
O=C1C(c2ccccc2)=C(c2ccccc2)C(c2ccc(CCCCCCc3ccc(C4=C(c5ccccc5)C(=O)C(c5ccccc5)=C4c4ccccc4)cc3)cc2)=C1c1ccccc1 | inactive: > 100 µM
NC(=O)ON=C1CCN(Cc2ccccc2)CC1 | inactive: > 100 µM
CO[C@@]12[C@H](COC(N)=O)C3=C(C(=O)C(C)=C(N)C3=O)N1C[C@H]1[C@@H]2N1C (some centres not stated) [PORFIROMYCIN] | inactive: 4.41 µM
C=C(C(=O)O)C1CCC(CC/C=C(\C)CC/C=C(\C)CCC=C(C)C)CO1 (configuration not stated) | inactive: 18.2 µM
COc1c2cc(C(C)(C)C)cc1CSCc1cc(C(C)(C)C)cc(c1OC)CCCCC2 | inactive: > 50 µM
CCC1CN2CCc3c([nH]c4ccccc34)C2C[C@@H]1CC(=O)N(C)C (some centres not stated) | inactive: > 100 µM
CC1=CC2=C(C#N)C(=O)OC2(C)C(c2ccccc2)C1 (configuration not stated) | inactive: > 100 µM

Structure (SMILES) | GI50
COC(=O)C(CNC(=O)/C=C/c1ccc(OC)c(OC)c1)NC(=O)/C=C/c1ccc(OC)c(OC)c1 (configuration not stated) | inactive: > 100 µM
CC(CN1CCN(CC(C)Nc2ccnc3cc(Cl)ccc23)CC1)Nc1ccnc2cc(Cl)ccc12 (configuration not stated) | inactive: 3.13 µM
O=[N+]([O-])c1nccn1CCCNc1c2ccccc2[n+]([O-])c2ccccc12 | inactive: > 100 µM
O=C1C2CCCC2N1Cc1ccccc1 (configuration not stated) | inactive: > 100 µM
N#Cc1ccc2[nH]c3c(c2c1)CC(=O)Nc1ccccc1-3 [PAULLONE 2] | inactive: > 100 µM
S=C1Nc2ccccc2SC1c1ccccc1 (configuration not stated) | inactive: > 100 µM
CCCN(CCC)C(=S)Sc1nc(C)nc(N2CCN(c3nc(C)nc(SC(=S)N(CCC)CCC)c3[N+](=O)[O-])CC2)c1[N+](=O)[O-] | inactive: 27.2 µM
O=S(=O)(c1ccc(Cl)cc1)c1ccccc1C1=NCCN1 | inactive: > 100 µM
C/C(=N\NC(=S)NC(C)(C)C)c1ccccn1 | active: < 0.0156 µM
Nc1ccc(C2=Nc3ccccc3SC(c3ccccc3O)C2)cc1 (configuration not stated) | inactive: > 100 µM
C=C(C)CN(CC#N)CC(=C)C | inactive: > 100 µM
CC1SC2=NC3=C(c4ccccc4C3=O)C(c3ccc(Cl)cc3)N2C1=O (configuration not stated) | inactive: > 100 µM
O=C(CSCC(=O)N/N=C/c1cccs1)N/N=C/c1cccs1 | inactive: > 100 µM
COc1ccc(S(=O)(=O)NC(CCC(=O)NC(N)=O)C(=O)NC(N)=O)cc1 (configuration not stated) | inactive: > 100 µM
O=C1CC(CC(=O)c2ccc(Br)cc2)C(O)=C1C(=O)c1ccc(Br)cc1 (configuration not stated) | inactive: > 100 µM
CCC(C#N)NCc1ccc(CNC(C#N)CC)cc1 (configuration not stated) | inactive: > 100 µM
CCCCCNC(=O)CCCCCCCCCCCNC(=O)CCCCCCCCCCN1C=CC(=CC=C2C=CC(=O)C=C2)C=C1 | inactive: > 100 µM
O=C(CCN1CCOCC1)/C(=C/c1ccccc1)c1ccccc1 | inactive: 15.3 µM
Fc1nc(F)nc(-c2c3ccccc3c3n2CCS3)n1 | inactive: > 100 µM
Cc1ccc(-c2cc(-c3ccco3)c(C#N)c(=O)n2C2OC(OC(=O)c3ccccc3)C(OC(=O)c3ccccc3)C2OC(=O)c2ccccc2)cc1 (configuration not stated) | inactive: > 100 µM
COC(=O)[C@H](Cc1ccccc1)NC(=O)N(CCC#N)CCCCN(CCC#N)C(=O)N[C@@H](Cc1ccccc1)C(=O)OC | inactive: > 100 µM

From ChEMBL document CHEMBL1201862, “PubChem BioAssay data set” (2004)
